# The full ranking holds about 33,000 sequences; the median of “E-score (-0.5 to 0.5)” is about -0.054, and the highest 2% start at about 0.39. Some of the results follow.
# Biological target: Ylr278c (UniProt Q05854)
# Test: PBM E-score (8-mer binding enrichment) (E-score (-0.5 to 0.5)); higher = stronger / more preferred TF binding; most listed sequences are background and not binding sites
# Details: protein concentration: 200 nM; construct: GST-DNA-binding domain
# Outline: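 Yeast transcription factors carrying a GST tag, as full-length proteins or DNA-binding domains, were produced by PURExpress in vitro transcription/translation. About 100-200 nM protein was applied to universal all-10-mer Agilent arrays, double-stranded by primer extension on fresh or once-stripped slides. Bound protein was detected with fluorescent anti-GST, and scans were normalised with masliner. The Universal PBM Analysis Suite gave each ungapped eight-base word, pooled with its reverse complement, an E-score, a modified Wilcoxon-Mann-Whitney statistic.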
row,Sequence,PBM E-score
1,GACCCTAA,-0.0817
2,GAGTTTAA,0.138
3,CGCTTGAC,-0.0143
4,ATTCAGGG,-0.0722
5,CGCATTGA,0.122
6,CTCTGAAC,-0.357
7,CGGATGAC,0.225
8,AAAGCTAA,-0.102
9,GGACCTGA,0.0691
10,ATGCAGGG,-0.158
11,CGATCGCA,0.149
12,AGGTCCGC,0.333
13,CGCTGGGC,-0.0443
14,ACAAATAA,-0.073
15,CCACTCGC,0.0161
16,CAGTCGGG,0.159
17,TACGCACA,-0.295
18,AGGATGCA,-0.243
19,ATCCGTTA,0.277
20,AGTAATCA,-0.0652
21,CAAAGACA,-0.0424
22,ACGTCCTA,0.0267
23,GAACGCAC,-0.0241
24,TATTCGGA,0.408
25,GAACCGGA,0.426

row,Sequence,PBM E-score
1,CGACCGAC,0.159
2,TGGGCGAA,-0.0681
3,ACAAATTG,-0.0518
4,ATATCCGG,0.413
5,CCTGGTTA,-0.206
6,TCTCAGCA,-0.355
7,GCTATCAC,-0.108
8,GTACGCGA,-0.193
9,TGGCCACA,-0.188
10,ACCTTTTG,0.009
11,CTCCAGTC,-0.0598
12,AGTGAGGG,-0.159
13,CGGAAACG,0.271
14,ACGGCATA,0.082
15,ATCCACTC,0.0469
16,TCGAGCCA,-0.192
17,AACAGTTG,-0.134
18,ATTAGCGC,0.0787
19,ACCCGCCT,-0.173
20,AAGGACTC,-0.104
21,AAACGTAG,-0.252
22,GCAATTAA,0.0805
23,AAGGAGAG,-0.219
24,CAAACATA,-0.233
25,ATGTTCGG,0.229

row,Sequence,PBM E-score
1,ACGTGATC,-0.0011
2,CTATACTA,0.0464
3,AGACCAAA,-0.111
4,ACCTAACT,0.0471
5,GATGTGGA,0.169
6,GAATCCGA,0.368
7,AGGTGAAC,-0.172
8,CTTCGTAC,-0.0723
9,CCTCAACG,-0.289
10,GACCCCCA,-0.271
11,ATCATTCC,0.114
12,CTACAAAC,-0.191
13,AATCTCGC,-0.00098
14,AAGCACAA,-0.126
15,CAGCATTA,-0.178
16,CTAGCCAG,-0.299
17,GGCTATAC,0.00804
18,AACTTTTG,0.0152
19,AAGCCGAC,0.286
20,AGGCCCAC,-0.337
21,AACTTGGA,-0.0692
22,CCACCTCC,0.231
23,ACTTCCGA,0.378
24,CGTTCAGC,-0.0765
25,GAATACGC,0.0561

row,Sequence,PBM E-score
1,ACCGTCAA,0.0593
2,AACCGCGA,0.209
3,AGGGCGAC,0.0545
4,GGGATGAC,0.0341
5,CGTCATAG,-0.102
6,GAACATAA,0.00938
7,TCACCGCA,0.0213
8,CCAGCTGG,0.0193
9,GCCTAAAC,-0.212
10,ATGGCCGA,0.19
11,GGCGGCAA,0.225
12,TCGGGTAA,0.0517
13,CGGCCTGC,0.0762
14,AGCGCGTG,-0.189
15,GCGGAGAC,0.4
16,AGTAGTGC,0.0423
17,CGGAAGCC,0.325
18,AGTGGCGA,-0.0275
19,GCAACATA,-0.273
20,GTGTCTGA,-0.222
21,GCGAAGAA,-0.033
22,GTGTCCTA,-0.108
23,ATTCCACG,0.0567
24,TGACACCA,-0.25
25,TCCGCACA,0.28

row,Sequence,PBM E-score
1,CGTGGCGA,0.0245
2,ATAAAAAA,0.0089
3,GGGTACTA,-0.148
4,AACGTTAG,-0.0215
5,CACTCCTA,-0.0698
6,CTAAATTC,0.0538
7,CGGTTCAC,0.0104
8,GACTAAGA,0.0539
9,AAGACGTA,-0.154
10,AAGCGGAT,0.327
11,ATGAGGTA,-0.15
12,ATCAGTTA,-0.0392
13,CTTTTCTA,-0.251
14,ACGATGAT,-0.139
15,AGGTGGAT,-0.184
16,CTTCTAAA,-0.149
17,TAGACTGA,-0.142
18,CGATCCAG,-0.048
19,GTTCGGCA,0.134
20,ACTCACCA,-0.189
21,ACGCTGAG,-0.252
22,AAAATACC,0.188
23,AAGACCCC,-0.0799
24,TAATGGAA,0.0688
25,CGAATCAC,-0.133

row,Sequence,PBM E-score
1,GTGTTCTA,0.0211
2,ACGGCGTA,-0.00977
3,ATTTGAGA,-0.0679
4,AAGGAACC,0.148
5,AAAAGTAT,-0.0537
6,AATCAACC,-0.0639
7,AGAAGTGC,-0.121
8,AGCAAGCT,-0.33
9,CTAAGAGC,-0.113
10,AACCTCGA,-0.0626
11,ATCCATTG,-0.0844
12,GGCATGGA,0.108
13,AGCGCCAG,-0.0532
14,CTGAATGC,-0.122
15,ACTCAGGC,-0.0826
16,CCTGTCAA,-0.208
17,AGCACCCT,-0.199
18,GTTATGTA,0.116
19,AGGAGCTG,-0.139
20,AAGGGCGA,-0.139
21,TCCAGGGA,-0.304
22,CACACTCC,0.144
23,ACAGGGCG,0.0649
24,ATCCCGTG,0.212
25,AACATATC,0.113

row,Sequence,PBM E-score
1,CGGGAGAC,0.302
2,GCTCGGGA,0.174
3,ATGTGTGA,-0.173
4,ATCTTTCC,0.0916
5,GATACGTA,-0.127
6,AAGTAATC,0.02
7,CCATGCCA,-0.0742
8,AGTGAAAG,-0.155
9,CAAGGTCA,-0.234
10,ATTCTCGC,-0.163
11,CAGGATAG,-0.156
12,AGGTGCCC,0.0203
13,ATGAACAT,-0.101
14,CAAACTAG,-0.237
15,ATCTTGGC,-0.056
16,GAACAGTC,-0.0473
17,AGAAAGAG,-0.0989
18,CCCGTTTC,0.167
19,CGCCCAAG,-0.00663
20,TCGAATAA,-0.0837
21,CCAGACAC,-0.222
22,CTCGGTCC,0.156
23,CGGTTACA,0.136
24,CATTACCC,0.0896
25,CGTGATAG,-0.00468

row,Sequence,PBM E-score
1,CATCGCCC,-0.0556
2,CTAAACTA,-0.0546
3,ACAGGCTA,-0.248
4,TGATTAAA,-0.0593
5,ACCGAGAT,0.184
6,ATTTTAAG,-0.118
7,AAGGGCGT,-0.102
8,AGGTAACG,-0.0647
9,CATTTTCG,0.173
10,CACTCTCG,0.0147
11,GGATAGAA,0.081
12,CCTGCGAG,-0.0873
13,GCTAGACA,-0.159
14,GCCCTGCA,-0.0979
15,CGGCTGTA,0.0129
16,CTCCTGAA,0.238
17,AACCGAAG,-0.018
18,AGACGTAA,-0.152
19,AAGATACC,0.0802
20,AAACTGAA,-0.00825
21,ACGACCGG,0.301
22,AAGGGTTC,-0.0754
23,ACTTATTG,-0.136
24,ATTATGTG,0.00779
25,ATGTCGTC,-0.0816

row,Sequence,PBM E-score
1,ACTTCGCC,0.132
2,CGAGTTCA,-0.156
3,AAGGATAC,-0.0644
4,GGGCCTAA,-0.0784
5,CCTTTACA,-0.159
6,CCACGATA,-0.0921
7,CTCTAATA,-0.161
8,ACCTCGTG,-0.187
9,AACAGCCA,-0.147
10,ATTGGAAC,-0.0837
11,AATGACCT,-0.188
12,CCATGGAA,-0.201
13,GTGTGGAA,0.0229
14,CTCTGTTA,-0.109
15,CTACATCA,-0.0771
16,TAGTATCA,0.0781
17,AGGTGATG,-0.201
18,GAAAGGAA,0.0898
19,GCACTGTA,-0.111

# — the supplement of paper PMC3334620
